Reference: PubChem BioAssay AID488969 (Vanderbilt High Throughput Screening Facility, 2010)
The full ranking holds about 110,000 compounds; the median of “z-score” is about -0.1, and the highest 2% start at about 2. The list shows a part of the results.

Target: Metabotropic glutamate receptor 8 (Rattus norvegicus) (UniProt P70579)
Experiment: rat mGluR8 modulators via GIRK flux, primary screen, cell-based, thallium flux, HTS (AID 488969)
Conditions: HEK293 rat mGluR8, GIRK (G protein-gated inwardly rectifying potassium channel) thallium flux, FluoZin2; at 10 µM; stronger effect = higher value; submaximal glutamate (EC20) added with thallium

Sequence of UniProt P70579 (P70579 whole entry, looked up): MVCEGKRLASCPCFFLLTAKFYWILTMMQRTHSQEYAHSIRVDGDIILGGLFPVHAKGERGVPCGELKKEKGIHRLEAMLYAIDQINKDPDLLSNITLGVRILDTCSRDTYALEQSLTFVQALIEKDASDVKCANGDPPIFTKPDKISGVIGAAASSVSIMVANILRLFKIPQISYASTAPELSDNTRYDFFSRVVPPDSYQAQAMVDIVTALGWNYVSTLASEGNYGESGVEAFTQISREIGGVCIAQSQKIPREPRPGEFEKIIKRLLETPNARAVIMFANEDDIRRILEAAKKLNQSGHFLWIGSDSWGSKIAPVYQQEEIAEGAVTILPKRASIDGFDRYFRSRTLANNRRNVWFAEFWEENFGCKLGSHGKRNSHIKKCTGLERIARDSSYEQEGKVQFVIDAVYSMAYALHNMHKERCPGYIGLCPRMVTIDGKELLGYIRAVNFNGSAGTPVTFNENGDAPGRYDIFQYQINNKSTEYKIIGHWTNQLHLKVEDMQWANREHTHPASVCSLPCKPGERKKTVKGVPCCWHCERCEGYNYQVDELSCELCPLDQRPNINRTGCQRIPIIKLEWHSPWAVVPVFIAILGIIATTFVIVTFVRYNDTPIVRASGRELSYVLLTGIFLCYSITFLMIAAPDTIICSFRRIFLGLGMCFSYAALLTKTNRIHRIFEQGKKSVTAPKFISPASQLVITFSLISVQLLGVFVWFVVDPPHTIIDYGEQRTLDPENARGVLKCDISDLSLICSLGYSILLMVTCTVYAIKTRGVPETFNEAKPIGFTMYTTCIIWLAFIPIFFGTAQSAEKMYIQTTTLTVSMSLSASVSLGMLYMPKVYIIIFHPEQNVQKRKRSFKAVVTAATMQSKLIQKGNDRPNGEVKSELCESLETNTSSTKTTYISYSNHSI

| SMILES | z-score |
| --- | --- |
| COC(=O)c1c(NC(=O)c2nc3nc(C)cc(C(F)F)n3n2)sc2c1CCC2 | -0.194 |
| O=c1oc2ccccc2c(N2CCCCC2)c1CN1CCCC1 | 0.0491 |
| COP(=O)(OC)C(Nc1ccc(C)cc1)c1ccc([N+](=O)[O-])cc1 (stereo unspecified) | 0.0422 |
| C=CCOc1cccc(/C=N/NC(=O)CN(c2cc(Cl)ccc2OC)S(=O)(=O)c2ccc(C)c([N+](=O)[O-])c2)c1 | -0.0532 |
| Cc1ccc(N2C(=O)N(CC(=O)N3CCCc4ccccc43)C(=O)C2C)cc1 (stereo unspecified) | -0.267 |
| NS(=O)(=O)c1ccc(NCc2cc(Cl)ccc2OCc2ccc(F)cc2)cc1 | -0.563 |
| O=C(CCS(=O)(=O)c1ccc(Br)s1)N1CCc2ccccc21 | 0.863 |
| COc1ccc(-c2cc(C(=O)n3cnc4ccccc43)c3ccccc3n2)cc1 | -0.115 |
| CC1CN(C2CCN(C(=O)COc3ccc(Cl)cc3)CC2)CC(C)O1 (stereo unspecified) | 0.0882 |
| CCOC(=O)CCNC(C)C1COc2ccccc2O1 (stereo unspecified) | 0.297 |
| Cc1ccc(S(=O)(=O)NCC(=O)NC2CCCCCC2)cc1 | 0.858 |
| COc1ccccc1NC(=O)CSc1nnnn1-c1ccc(C)cc1 | -0.183 |
| CCCCc1c(C)nc2ccccc2c1SCCC#N | -0.338 |
| Cc1ccc(S(=O)(=O)NCC(c2cccnc2)N(C)C)cc1 (stereo unspecified) | -0.209 |
| Cc1ccc(N2CC(C(=O)NCc3cccnc3)CC2=O)cc1 (stereo unspecified) | 0.0646 |
| CCOC(=O)C1=C(CN2CCN(c3ccc(F)cc3)CC2)NC(=O)NC1c1cccs1 (stereo unspecified) | -1.46 |
| Cn1c(=O)c2c(nc(CN3CCN(Cc4ccccc4)CC3)n2CCN2CCOCC2)n(C)c1=O | 0.778 |
| COc1cccc(C(c2sc3ncnn3c2O)N2CC(C)OC(C)C2)c1 (stereo unspecified) | 1.01 |
| COc1ccc(CN2CCn3ncc(C(=O)Nc4ccccc4)c3C2=O)cc1 | -0.121 |
| CCCCCNC(=O)c1ccccc1SC | 0.0023 |
| Clc1ccc(SCCCCn2ccnc2)cc1 | 0.598 |
| CCc1nnc(NC(=O)c2ccc(-c3cc(C(F)(F)F)ccc3Cl)o2)s1 | -0.484 |
| Cc1cc(NC(=O)CSc2nc3ccsc3c(=O)n2CCCCC(=O)O)no1 | -0.312 |

| SMILES | z-score |
| --- | --- |
| CCOc1ccc(N/N=C(/C#N)C(N)=O)cc1 | -0.0669 |
| O=c1ccc2cc(S(=O)(=O)Nc3ccc(F)cc3)ccc2o1 | -0.226 |
| CCOc1ccc(N(C(C)C(=O)NC2CCCCCC2)S(C)(=O)=O)cc1 (stereo unspecified) | 0.52 |
| CCOc1cc(C2c3c(n[nH]c3C)C(=O)N2c2ccc(C)cc2)ccc1O (stereo unspecified) | -0.47 |
| Cn1nc(CC(=O)NCc2ccc(F)cc2)c2ccccc2c1=O | -0.367 |
| Cc1cc(C(=O)NCC(=O)OCC(=O)N(C)C2CCCCC2)ccc1[N+](=O)[O-] | 0.828 |
| CS(=O)(=O)N(CC(=O)O)c1cc(Cl)cc(Cl)c1 | -0.172 |
| Cc1nc2sc(C)c(C)c2c(=O)[nH]1 | -1.16 |
| CN(/N=C/c1cccnc1)C1=NS(=O)(=O)c2ccccc21 | 0.273 |
| CC(=O)NC(Cc1ccccc1C)C(=O)NC1CCN(c2ncccc2[N+](=O)[O-])CC1 (stereo unspecified) | -0.207 |
| Cc1cc(C)cc(NC(=S)NCc2cccnc2)c1 | -0.22 |
| CCOC(=O)N1CCN(Cc2ccccc2F)CC1 | 0.00263 |
| COc1cc(C=O)ccc1OCCSc1ccc(Cl)cc1 | -0.34 |
| COC(=O)Cc1ccc2sc(-c3ccccc3)nc2c1 | -0.0354 |
| O=C(CCNS(=O)(=O)c1ccccc1C(F)(F)F)NCc1ccc2c(c1)OCO2 | 0.0644 |
| O=C1c2cccc3c(N4CCCCC4)ccc(c23)C(=O)N1c1ccccn1 | -1.8 |
| CCCN(CCO)Cc1cccc(Br)c1 | 0.000447 |
| CNC(=O)c1[nH]cnc1C(=O)Nc1ccccc1C | 0.825 |
| O=C(CCCC(=O)N(CC(=O)NC1CCCC1)Cc1ccc(F)cc1)Nc1ccccn1 | -0.545 |
| Cc1cc(NS(=O)(=O)c2ccc(NC(=O)C(CC(C)C)N3C(=O)c4ccccc4C3=O)cc2)nc(C)n1 (stereo unspecified) | -0.338 |
| O=C(OCC(=O)N1CCOCC1)c1ccc(Cl)nc1 | 0.344 |
| Cc1ccc2nc(SCC(=O)NCc3ccco3)[nH]c2c1 | -0.075 |
| CCCCOc1ccc(C(=O)Nc2ccc(N3CCN(C(C)=O)CC3)cc2)cc1 | 1.89 |

| SMILES | z-score |
| --- | --- |
| Cc1cc(C)n2nc(SCc3cc(=O)oc4ccc5ccccc5c34)nc2n1 | -0.493 |
| COc1ccccc1Cc1noc(COc2cccc(C)c2C)n1 | 0.212 |
| Cc1ccc(-c2nnc(Oc3cccc(C)c3)c3ccccc23)cc1 | -0.228 |
| O=[N+]([O-])c1cc2c(cc1/C=N/Nc1nc(Nc3ccccc3)nc(N3CCCCC3)n1)OCO2 | 0.0718 |
| CCOc1cccc2cc(C(=O)NCc3cccnc3)c(=O)oc12 | -0.0081 |
| O=C(Nc1ccc2c(c1)OCCO2)C1CCCN(S(=O)(=O)Cc2ccccc2)C1 (stereo unspecified) | 0.539 |
| O=C1c2ccccc2C(=O)N1Cc1ccc2c(c1)OCO2 | -0.227 |
| CCNC(=O)/C(=C/c1ccc2c(c1)OCO2)NC(=O)c1ccc(Br)cc1 | -0.0861 |
| CC1CCCCN1C(=O)COC(=O)c1n[nH]c2ccccc12 (stereo unspecified) | -0.423 |
| CN(C)S(=O)(=O)N1CCN(C(=O)c2cccc(Br)c2)CC1 | -0.312 |
| O=C(C(c1ccccc1)c1ccccc1)N1CCN(Cc2ccc(Br)cc2)CC1 | 0.0136 |
| NS(=O)(=O)c1cccc(NC(=O)COC(=O)/C(=C/c2cccs2)c2cccs2)c1 | -0.195 |
| COc1ccccc1-c1nnc(SCC(=O)NCc2c(C)c(Cl)cc(C(C)C)c2O)o1 | -0.451 |
| CCOc1ccc(NC(=O)COC(=O)c2c(OC)cccc2OC)cc1 | -0.322 |
| O=C1COc2ccc(-c3csc(=Nc4ccc(OC(F)F)cc4)n3CC3CCCO3)cc2N1 (stereo unspecified) | -0.068 |
| Cc1cccn2c(N)c(-c3ccccc3)nc12 | 1.07 |
| CC1CCN(S(=O)(=O)c2cccc(-c3csc(-c4cccnc4)n3)c2)CC1 | 0.341 |
| CCOc1ccc(CNC(=O)C(CC)n2nc(C)n3c(cc4occc43)c2=O)cc1OC (stereo unspecified) | -1.26 |
| O=[N+]([O-])c1ccc(N2CCC(=NOCc3ccc(Cl)cc3)CC2)cc1 | -0.125 |
| CCCc1nnc(NC(=O)CCC(=O)NC2CCCc3ccccc32)s1 (stereo unspecified) | -0.05 |
| O=C(NCCc1ccccc1)c1cc(-c2ccco2)on1 | 0.278 |
| CN(C)S(=O)(=O)c1cccc(NC(=O)CSc2nc3c(cc2C#N)C(=O)CC(C)(C)C3)c1 | -1.13 |
| O=C(/C(=C/c1ccccc1)n1cncn1)c1ccc(Cl)cc1Cl | -0.55 |

| SMILES | z-score |
| --- | --- |
| CCCOc1ccc(C(=O)Nc2ccc(N3CCN(C(C)=O)CC3)cc2)cc1 | 9.14e-05 |
| CCN(CC)c1nc2ccccc2nc1C(C#N)C(=O)NCCc1ccccc1 (stereo unspecified) | -0.622 |
| COC(=O)COc1ccc(C(=O)OC)cc1 | -0.12 |
| Fc1ccc(N2CCN(c3nc(-c4ccco4)cc(C(F)(F)F)n3)CC2)cc1 | 0.981 |
| O=C(CSc1nnc(-c2ccc(OC(F)F)cc2)o1)NCc1cccs1 | -0.106 |
| CC1CCCCN1S(=O)(=O)c1ccc(C(=O)Nc2sccc2C(N)=O)cc1 (stereo unspecified) | 0.983 |
| O=C(NC(=S)Nc1ccc(N2CCOCC2)cc1)c1ccc2c(c1)OCCO2 | 0.0862 |
| Cc1ccc(NC(=O)CCNS(=O)(=O)c2ccc3c(c2)oc(=O)n3C)c(C)c1 | 0.0598 |
| Cc1nn(CCC(N)=S)c2nc(-c3cccs3)cc(C(F)(F)F)c12 | -0.0243 |
| OCCCCCNc1ncnc2ccccc12 | 1.01 |
| CCCCC(O)CN1CCC(c2ccccc2)CC1 (stereo unspecified) | 0.558 |
| CCOC(=O)c1c(C)[nH]c(NC(=O)Nc2c(C)n(C)n(-c3ccccc3)c2=O)c1C | -0.462 |
| COc1ccccc1C/C(N)=N/OC(=O)COc1cccc2ccccc12 | 0.0266 |
| Cc1c(NC(=O)c2ccccc2NS(=O)(=O)c2ccc(Br)cc2)c(=O)n(-c2ccccc2)n1C | -0.446 |
| Clc1ccc(CNc2nc(CN3CCOCC3)nc3scc(-c4ccccc4)c23)cc1 | -0.101 |
| CCCC(=O)NC(=S)Nc1cccc(Cl)c1N1CCCCC1 | 0.12 |
| CCCCCCOc1ccc(N2C(=O)CC(NCCc3ccc(S(N)(=O)=O)cc3)C2=O)cc1 (stereo unspecified) | -0.234 |
| CN(C)CCCNC(=O)COc1ccc(Br)cc1Cl | 0.032 |
| CC(C)C(=O)NC(NC(=S)NC1CCS(=O)(=O)C1)C(Cl)(Cl)Cl (stereo unspecified) | -0.184 |
| CCc1sc(N(C(=O)Cc2ccccc2)c2cccc(F)c2)nc1-c1ccc(C)cc1 | 0.121 |
| Cc1nn(-c2ccccc2)c(C)c1/C=C/C(=O)OCC(=O)Nc1ncc(C(F)(F)F)cc1Cl | -0.39 |
| CCOc1ccc(NC(=O)c2nn(C)cc2Br)cc1 | -1.14 |
| COCc1cc(C)c(C#N)c(=S)[nH]1 | -0.0079 |

| SMILES | z-score |
| --- | --- |
| Cn1c(=O)c2c(nc(NCc3ccccc3)n2Cc2ccc(F)cc2)n(C)c1=O | -0.185 |
| COc1cccc(C(=O)N(CN2CCCC2=O)c2cc(C)on2)c1 | -0.254 |
| O=S(=O)(NCC(Nc1ccc(Cl)cc1)c1ccccc1)c1ccc(Cl)cc1 (stereo unspecified) | -0.0372 |
| O=C1c2cccnc2C(=O)N1C1CCCCC1 | -0.115 |
| COC(=O)c1ccccc1C(=O)N1CCOCCOCCOCC1 | -0.0749 |
| CC(c1nnc(SCC(=O)N2CC(=O)Nc3ccccc32)n1Cc1ccccc1)N(C)C (stereo unspecified) | -0.35 |
| Cc1ccc(NC(=O)C2C(c3ccccc3)C=CC(c3ccccc3)C2C(=O)O)cc1 (stereo unspecified) | -0.143 |
| O=C(NC1CCCC1)C1=COCCO1 | -0.000192 |
| OCCNc1ccc(Cl)cc1 | -0.583 |
| COc1cc(/C=N/NC(=S)NCCN2CCOCC2)cc(OC)c1OC | -0.0565 |
| O=C(OCc1c(Cl)cccc1Cl)c1ccccn1 | -0.233 |
| O=[N+]([O-])c1ccc(-n2nncc2-c2ccc(Cl)cc2)cc1 | -0.281 |
| COc1ccc(CNC(=O)CCOc2ccc(C(C)(C)C)cc2)cc1 | -0.421 |
| COc1cccc(C2CC(c3cccs3)=NN2C(=S)Nc2ccccc2)c1OC (stereo unspecified) | -0.169 |
| Cc1ccc2c(c1C)OC(=O)CC2(C)C | -0.276 |
| O=C(NCC1(c2ccccc2)CCCC1)C(=O)NCC1(c2ccccc2)CCCC1 | 0.528 |
| COc1ccc(/C=C/c2ccncc2)cc1OC | 0.105 |
| Cn1c(C(=O)OCC(=O)NCCc2ccccc2)cc2sccc21 | -0.189 |
| Cc1cccc(C)c1N1CCN(c2nc(N(C)C)oc(=O)c2C#N)CC1 | -0.114 |
